# Measured values reported in PMC6602471.
# Some of the results follow. At the low end of the ranking the order means little.
# Biological target: T1, ETS1 (UniProt P14921)
# T1 sequence: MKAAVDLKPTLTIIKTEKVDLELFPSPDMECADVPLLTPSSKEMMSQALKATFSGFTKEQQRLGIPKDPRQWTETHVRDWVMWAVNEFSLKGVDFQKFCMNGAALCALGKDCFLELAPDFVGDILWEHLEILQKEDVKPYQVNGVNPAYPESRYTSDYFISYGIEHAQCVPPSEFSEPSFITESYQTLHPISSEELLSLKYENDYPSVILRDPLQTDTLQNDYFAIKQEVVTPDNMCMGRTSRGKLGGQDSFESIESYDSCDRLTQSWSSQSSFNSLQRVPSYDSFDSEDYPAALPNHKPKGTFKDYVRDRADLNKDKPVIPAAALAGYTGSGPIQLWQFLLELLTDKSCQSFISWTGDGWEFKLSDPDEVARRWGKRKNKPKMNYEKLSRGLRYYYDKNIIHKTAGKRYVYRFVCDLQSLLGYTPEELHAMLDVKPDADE
# Assay: custom PBM
# Conditions: custom protein-binding microarray; buffer, salt, pH and temperature not stated; high values mean tight binding; double strand, one strand shown
row,Sequence,binding signal (log fluorescence intensity)
1,TAAAGGGGAGACGGTTGTGGTAGTTCCGGGTATTAAGTCTTGATTCGCTTGACGCTGCTG,8.23
2,CACAATTTTTACACTAATGTAGCACGCGTAACTCCTGTCTTGATTCGCTTGACGCTGCTG,8.14
3,GATTAATGTCTGCCCTTATTCGCACGTGCCATAACAGTCTTGATTCGCTTGACGCTGCTG,8.17
4,CTCGGACTTGACCCAACTCTGCCACGTGGGTCGTTTGTCTTGATTCGCTTGACGCTGCTG,8.17
5,GCTGCTGCGGTGCATACCCCCCCGGATGTGACCCCGGTCTTGATTCGCTTGACGCTGCTG,8.71
6,CAGCATAGGACTTCTTCCCTGATGCAATTGATAACCGTCTTGATTCGCTTGACGCTGCTG,8.16
7,CGGAAGTGTCGTAAACGTCGGATATCCGGTTCTCCTGTCTTGATTCGCTTGACGCTGCTG,11.8
8,CTGGGTCTTGACCCAACTCTGCCACGTGGGTCGTTTGTCTTGATTCGCTTGACGCTGCTG,8.39
9,TAAAGGGAAGACGGTTGTAGTAGTTCCGGGTATTAAGTCTTGATTCGCTTGACGCTGCTG,8.81
10,CAGCTTAGGACTTCTTCCCTGAAGCAATTGATAACCGTCTTGATTCGCTTGACGCTGCTG,8.12
11,TCCGGCTACCAGCTCCACCCCCTTCAGGCCTTGTAGGTCTTGATTCGCTTGACGCTGCTG,8.13
12,TACTGACTTATATACGCGAATGCACATGAATAGACCGTCTTGATTCGCTTGACGCTGCTG,8.08
13,GATTAATTTCTGCACTTATTCGCACGTGCCATAACAGTCTTGATTCGCTTGACGCTGCTG,8.18
14,CTGCGACTTGACCCAACTCTGCCACGTGGGTCGTTTGTCTTGATTCGCTTGACGCTGCTG,8.19
15,CGGAAGTGTCGTAACCGTCGGATATCCGGTTCTTCTGTCTTGATTCGCTTGACGCTGCTG,11.9
16,GCTGCTGCGGTGCAGACCCCACCGGATGTGACCCCGGTCTTGATTCGCTTGACGCTGCTG,10.2
17,CACAATTTTTACGGTAATGTAGCACGCGTAACTCCTGTCTTGATTCGCTTGACGCTGCTG,8.19
18,TAAAGGGCAGACGGTTGTGGTAGTTCCGGGTATTAAGTCTTGATTCGCTTGACGCTGCTG,8.09
19,CACAATTTTTACAGTAATGTAGCACGCGAAACTCCTGTCTTGATTCGCTTGACGCTGCTG,8.22
20,TACTTACTTATATATGCGAATGCACATGAATAGACCGTCTTGATTCGCTTGACGCTGCTG,8.15
21,TGTCGGGTAAGGGAATGTAGTTCACGTGAATGAAAAGTCTTGATTCGCTTGACGCTGCTG,8.2
22,CGGAAGTGTCGTAAACGTCGGATATCCGGTTCTGCTGTCTTGATTCGCTTGACGCTGCTG,11.8
23,CTGGGACTTGACCCTACTCTGCCACGTGGGTCGTTTGTCTTGATTCGCTTGACGCTGCTG,8.26
24,TCCGGCTACCAGCTCCACCCACTGCAGGCCTTGTAGGTCTTGATTCGCTTGACGCTGCTG,8.34
25,TGTCGGGTAAGGGAATGTAAATCACGTGAATGAAAAGTCTTGATTCGCTTGACGCTGCTG,8.21
26,TGTCGGGTAAGGGAATATAGATCACGTGAATGAAAAGTCTTGATTCGCTTGACGCTGCTG,8.36

row,Sequence,binding signal (log fluorescence intensity)
1,CTGGGACATGACCCAACTCTGCCACGTGGGTCGTTTGTCTTGATTCGCTTGACGCTGCTG,8.29
2,CGGGAGTGTCGTAAACGTCGGATATCCGGTTCTTCTGTCTTGATTCGCTTGACGCTGCTG,11.7
3,TACTGACTTATATATGCGAATGGACATGAATAGACCGTCTTGATTCGCTTGACGCTGCTG,8.31
4,CACAATTTTTACAGTAATGTAGCACTCGTAACTCCTGTCTTGATTCGCTTGACGCTGCTG,8.26
5,CGGAAGTGTCGTAAACGTCGGATATCCGGTTCTTCGGTCTTGATTCGCTTGACGCTGCTG,12
6,TGACGGGTAAGGGAATGTAGATCACGTGAATGAAAAGTCTTGATTCGCTTGACGCTGCTG,8.13
7,TCCGGCTACCAGCTCCACCCACTTAAGGCCTTGTAGGTCTTGATTCGCTTGACGCTGCTG,8.11
8,GTGTATAGGATACCATCCAACACACGTGTTAAAATGGTCTTGATTCGCTTGACGCTGCTG,8.24
9,TAAAGGGAAGACGGTTGTTGTAGTTCCGGGTATTAAGTCTTGATTCGCTTGACGCTGCTG,8.54
10,CTGGGACTTGACCCAACTCTGCCACGTGGCTCGTTTGTCTTGATTCGCTTGACGCTGCTG,8.24
11,TAAAGGGAAGACGGTTGTGGCAGTTCCGGGTATTAAGTCTTGATTCGCTTGACGCTGCTG,8.57
12,GTGTATAGGATCCCGTCCAACACACGTGTTAAAATGGTCTTGATTCGCTTGACGCTGCTG,8.28
13,TACTGACTTATATATGCGAATGCACATGAATAGAGCGTCTTGATTCGCTTGACGCTGCTG,8.21
14,TCCGGCTACTAGCTCCACCCACTTCAGGCCTTGTAGGTCTTGATTCGCTTGACGCTGCTG,8.1
15,GATTAATTTCTTCCCTTATTCGCACGTGCCATAACAGTCTTGATTCGCTTGACGCTGCTG,8.21
16,TGTCGGGTAAGGGAATGTAGATAACGTGAATGAAAAGTCTTGATTCGCTTGACGCTGCTG,8.12
17,GATTAATTTCTGCCCTTATTCGCACGTGCCATGACAGTCTTGATTCGCTTGACGCTGCTG,8.18
18,CGGAAGTGTCGTAAACATCGGATATCCGGTTCTTCTGTCTTGATTCGCTTGACGCTGCTG,12
19,TGTCGGGTAAGGGAATGTAGATCACGTGAATGGAAAGTCTTGATTCGCTTGACGCTGCTG,8.3
20,TACTGACTCATATATGCGAATGCACATGAATAGACCGTCTTGATTCGCTTGACGCTGCTG,8.22
21,CGGAAGTGTCGTAAACGCCGGATATCCGGTTCTTCTGTCTTGATTCGCTTGACGCTGCTG,13.1
22,GGAAGAAGGCCCAGGGTAACACCGGAAGTGGGCTTAGTCTTGATTCGCTTGACGCTGCTG,12.1
23,GCTGCTGCGGTGCAAACCCCACCGGATGTGACCCCGGTCTTGATTCGCTTGACGCTGCTG,10.6
24,CAGCATAGGACTTCTTCTCTGAAGCAATTGATAACCGTCTTGATTCGCTTGACGCTGCTG,8.15
25,CGGAAGTGTCGTAAACGTCGGATATCCGGCTCTTCTGTCTTGATTCGCTTGACGCTGCTG,10.7
26,CGGAAGTGTCATAAACGTCGGATATCCGGTTCTTCTGTCTTGATTCGCTTGACGCTGCTG,11.7
